The list shows a part of the results.

The test relates to HepG2. Kind of test: cytotoxicity call (relative viability < 0.9). The note with it: 10 µM.
Consider `C[C@@H]1CN([C@@H](C)CO)S(=O)(=O)c2ccc(Br)cc2O[C@H]1CN(C)C(=O)C1CCOCC1`, for which the cytotoxicity call was “inactive”.

Take `C[C@@H]1CN([C@@H](C)CO)S(=O)(=O)c2ccc(/C=C/c3ccccc3)cc2O[C@@H]1CN(C)C(=O)Nc1cc(F)ccc1F`: the cytotoxicity call is “inactive”.

With `C[C@@H]1CN([C@@H](C)CO)C(=O)c2cc(NS(=O)(=O)c3ccc(F)cc3)ccc2O[C@@H]1CN(C)C(=O)Nc1cccc2ccccc12`, the cytotoxicity call is “inactive”.

As to `C[C@H]1CN([C@@H](C)CO)C(=O)c2cccc(NC(=O)c3ccncc3)c2O[C@@H]1CN(C)Cc1ccc2c(c1)OCO2`, the cytotoxicity call was “inactive”.

`CN1CCN(C(=O)[C@H]2[C@H](CO)[C@H]3Cn4c(cccc4=O)[C@@H]2N3S(=O)(=O)c2ccccc2F)CC1`: the cytotoxicity call was “inactive”.

For the compound `Cc1cccc(C)c1NC(=O)[C@@H](C)N`, the cytotoxicity call was “inactive”.

For the compound `C[C@@H]1CN([C@H](C)CO)C(=O)c2cc(NC(=O)Cn3cnnn3)ccc2O[C@H]1CN(C)C(=O)Nc1ccc2c(c1)OCO2`, the cytotoxicity call was “inactive”.

`C[C@H]1CC/C=C\[C@H]2O[C@@]34C=CCN(c5ccc(Cl)cc5)C(=O)[C@H]3N(CCCO)C(=O)[C@]4(C)[C@@H]2C(=O)O1`: the cytotoxicity call was “inactive”.

Regarding `O=C(C[C@H]1C=C[C@H](NC(=O)Cc2ccccn2)[C@H](CO)O1)NCCCN1CCOCC1`, the cytotoxicity call was “inactive”.

Take `C[C@@H]1CN([C@H](C)CO)C(=O)c2cc(NC(=O)Nc3cccc4ccccc34)ccc2O[C@H]1CN(C)CC1CCCCC1`: the cytotoxicity call is “active”.

`COCC#Cc1ccc2c(c1)O[C@H](CN(C)C(=O)CN(C)C)[C@H](C)CN([C@H](C)CO)S2(=O)=O`: the cytotoxicity call was “inactive”.

Values taken from the antibiotic and cytotoxicity screens of Wong et al. (2023).
